The campaign covered roughly 48,000 compounds. About 120 (0.25%) were called active. Roughly 4% stayed inconclusive and do not appear here. The call rests on the fitted dose curve; in most records, active means well fitted activation curve with a large enough effect; inconclusive means small, poorly fitted or top-dose-only effect, or another doubt; inactive means no such curve, though single readings can be large or run the other way. This is one part of the list.

The nature of the assay: Primary qHTS for Identification of Small Molecule Activators of Huntingtin-Antisense Promoter Activity. Further: nearly all actives have a fitted effect of over 55% in size. As to conditions: HEK293 HTT-AS promoter firefly luciferase reporter, 24 h; series mostly up to 57.5 µM; activity change, positive = activation: at the top concentration. Put shortly: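 Luminescence was read after Dual-Glo reagent and a 10 min room-temperature incubation. Values were normalized to vehicle (0% activity) and zero RLU (-100% activity). Reporter HEK293 cells had been exposed to compounds (up to 57.5 uM final) for 24 h.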
(In general: qHTS replaces the single test concentration by a dilution series.)
In the case of `COc1ccc(CCNC(=O)c2ccc3c(c2)sc2nc(-c4ccccc4)cn23)cc1OC`, the “activity change, positive = activation” value is inactive: 31%.
`CCOC(=O)c1cc(-c2ccc(OC)cc2)n(CCC(=O)NCCc2ccccc2)c1C`: the “activity change, positive = activation” value is inactive: -6.98%.
For `Cc1ccccc1N(C)S(=O)(=O)c1nnc(NC(=O)c2ccco2)s1`, the “activity change, positive = activation” value was inactive: -19.3%.
As for `Cc1ccc(NC(=O)C2(C)Cc3ccccc3C(=O)O2)c(C)c1` (stereo not drawn), the figure is inactive: -5.97%; as for `Cc1cc(OCC(=O)NCCc2nc3ccccc3[nH]2)cc(C)c1Cl`, inactive: -11.1%; as for `CCn1nc(C)c(CCN(C)C(=O)Nc2cccc(Cl)c2C)c1C`, inactive: -2.26%.
As for `Cc1cccc(C(=O)N2CCc3cc(CNC(=O)c4cc5ccccc5[nH]4)ccc32)c1`, the figure is inactive: -4.18%.
As for `Cc1ccc(CNC(=O)C(C)n2c(=O)cc(C(F)(F)F)c3c(C)nn(C)c32)cc1` (stereo not drawn), the figure is inactive: -27.5%; as for `Cc1ccc(S(=O)(=O)C(CNC(=O)c2c(F)cccc2F)c2ccco2)cc1` (stereo not drawn), inactive: -3.67%; as for `Cc1cc(C)c(S(=O)(=O)NCCS(=O)(=O)N2CCN(c3ccccc3)CC2)c(C)c1`, inactive: -8.45%.
`O=S(=O)(c1ccccc1)c1nc(-c2ccccc2Cl)oc1N1CCCCCC1`: the “activity change, positive = activation” value is inactive: -22.3%.
Then `COc1cccc(Nc2nc3cc(C)ccc3nc2NS(=O)(=O)c2ccc(Cl)cc2)c1`, with inactive: -60.3%; and `COC(=O)c1ccccc1NC(=O)Cn1cnc2sc(C)c(S(=O)(=O)N3CCC(C)CC3)c2c1=O`, with inactive: 0.528%; and `Cc1nc2ccccn2c(=O)c1NC(=O)c1cccc(F)c1`, with inactive: -2.02%.
Then `COc1ccc(NC(=O)/C=C\C(=O)N(c2ccc(C(C)C)cc2)C(C(=O)NCc2ccco2)c2ccc(C)cc2)cc1` (stereo not drawn), with inactive: -45.4%; and `COc1ccc(Cl)cc1-n1cc(-c2ccccc2)nc1SCC(=O)Nc1ccc(C)cc1`, with inactive: -21.7%; and `O=C(NC1CCCC1)c1ccc2c(=O)n(Cc3ccccc3)c(SCc3ccccc3F)nc2c1`, with inactive: -13.7%.
`COc1ccccc1CNC(=O)C1CCN(c2nc3ccc(C)cc3[nH]2)CC1`: the “activity change, positive = activation” value is inactive: -6.94%.
As for `CCc1ccc(CNC(=O)CCCn2ccc3cc(S(=O)(=O)N4CCCC4)ccc32)cc1`, the figure is inactive: -27.3%; as for `CCOc1ccc(CCNC(=O)c2cc3c(-c4ccccc4F)nn(C)c3s2)cc1`, inactive: -15.9%; as for `COc1ccc(-c2cc(-c3ccc(C)cc3)nc3c2COc2ccccc2-3)cc1`, inactive: -4.3%.
As for `CCC(Cn1nnc2ccccc2c1=O)NC(=O)Nc1ccccc1OC` (stereo not drawn), the figure is inactive: -7.27%; as for `Cc1ccc(S(=O)(=O)c2nc(-c3ccc(F)cc3)oc2SCC(=O)NC2CCCCC2)cc1`, inactive: -18%; as for `C[C@]12CCC(=O)C=C1CC[C@@H]1[C@H]2[C@@H](O)C[C@@]2(C)[C@H]1CC[C@]2(O)C(=O)CO`, inactive: -12.5%.
Then `CCS(=O)(=O)N1CCc2cc(C(=O)NCc3ccccc3OC)ccc21`, with inactive: -17.8%; and `CCOc1ccc(CCNC(=O)C2CCCN(S(=O)(=O)N(C)c3ccc(F)cc3)C2)cc1` (stereo not drawn), with inactive: -41.3%; and `COc1cccc(NC(=O)C2CCC(CNS(=O)(=O)c3ccc4c(c3)CCCC(=O)N4)CC2)c1` (stereo not drawn), with inactive: -10.2%.
Consider `CCn1cc(CNC(=O)c2cc(-c3ccc(C)cc3)nc3ccc(Br)cc23)c(C)n1`, for which the “activity change, positive = activation” value is inactive: -5.93%.
As for `Cc1ccccc1-c1nc2scc(CCNC(=O)c3ccco3)n2n1`, the figure is inactive: -25.9%.
As for `COc1ccc(NC(=O)CN2C(=O)COc3ccc(S(=O)(=O)N4CCOCC4)cc32)cc1`, the figure is inactive: 6.47%.
As for `O=C(NCc1ccccc1)C(=O)Nc1c2c(nn1-c1ccc(F)cc1)CSC2`, the figure is inactive: -17.4%.
Regarding `COc1cccc(NC(=O)C2CCN(c3ccc(Sc4ccc(C)cc4)nn3)CC2)c1`, the “activity change, positive = activation” value was inactive: -24.5%.
As for `Clc1ccccc1OCCSc1nnc(-c2cccs2)o1`, the figure is inactive: 5.25%.
Consider `O=C(CSc1nc(=O)n(Cc2ccco2)c2c1CCC2)NCc1ccccc1`, for which the “activity change, positive = activation” value is inactive: -7.46%.
Take `CCc1ccc2oc(-c3ccc(C)c(NC(=O)/C=C/c4ccco4)c3)nc2c1`: the “activity change, positive = activation” value is inactive: 0.939%.
As for `Cc1sc2ncn(CC(=O)N3CCN(c4ccccc4F)CC3)c(=O)c2c1S(=O)(=O)N1CCC(C)CC1`, the figure is inactive: -0.481%; as for `Cc1cccc(OCCSc2nnc(-c3cccs3)o2)c1`, inactive: -5.85% [at 11.5 µM, percent change from vehicle, -100% = no light]; as for `CCOC(=O)c1ccc(NC(=O)c2cnn3c(=O)c4c(n(CC)c23)CCN(Cc2ccc(OC)cc2)C4)cc1`, inactive: -12.6%.
Regarding `Cc1cn2c(=O)cc(COC(=O)c3ccc(NC(=O)c4ccc(F)cc4)cc3)nc2s1`, the “activity change, positive = activation” value is inactive: -29%.
Consider `CC1CCN(S(=O)(=O)N2CCC(C(=O)NCc3ccccc3Cl)CC2)CC1`, for which the “activity change, positive = activation” value is inactive: -31.2%.
As for `COC(=O)c1ccc(Nc2ncnc3c2cnn3C)cc1`, the figure is inactive: 2.24%; as for `COc1ccc(C2c3[nH]c4ccccc4c3CCN2C(=O)CCC2CCCC2)cc1` (stereo not drawn), inactive: -33.1%.
As for `COc1ccc(CNC(=O)Cc2c(C)c3cc4c(C)coc4cc3oc2=O)cc1OC`, the figure is inactive: -5.92%; as for `CC(Sc1nccn1C)C(=O)Nc1ccccc1C#N` (stereo not drawn), inactive: 5.58%; as for `CCN(CC)c1ccc(NC(=O)c2cc(C)nc3c2c(C)nn3-c2ccc(C)cc2)c(C)c1`, inactive: -22.4%.
As for `COc1ccc(-c2nc3scc(CCNS(=O)(=O)c4ccc(Oc5ccccc5)cc4)n3n2)cc1OC`, the “activity change, positive = activation” value is inactive: -24.4%.
Then `Cc1ccsc1CCN1C(=O)N(c2ccccc2)C(=O)C1CC(=O)Nc1ccc(Cl)cc1` (stereo not drawn), with inactive: -26.1%; and `CCN(CC)C(=O)c1sc2c(c1C)c(=O)n(-c1ccc(C)c(C)c1)c(=O)n2Cc1cc(=O)n2ccccc2n1`, with inactive: -17.5%; and `OCCn1cc(-c2cnc3nnn(Cc4ccc5ncccc5c4)c3n2)cn1`, with inactive: 4.92%.
For `Cc1ccc2sc(N(Cc3cccnc3)C(=O)CCS(=O)(=O)c3ccccc3)nc2c1C`, the “activity change, positive = activation” value was inactive: -17.7%.
Then `COc1ccc(N2CCN(C(=O)CSc3nc(-c4ccc(C(C)C)cc4)no3)CC2)cc1`, with inactive: -54.8%; and `O=C(CNC(=O)c1ccccc1)OCc1cc(=O)n2nc(C3CCCCC3)sc2n1`, with inactive: 3.89%; and `CCN(CC)C(=O)c1sc2c(c1C)c(=O)n(Cc1ccccc1)c(=O)n2Cc1ccccc1C`, with inactive: -33.6%.
As for `COc1ccc(CCNC(=O)c2ccc3c(c2)CCN3S(C)(=O)=O)cc1OC`, the figure is inactive: -15.2%.
For the molecule `Cc1nc(-c2ccc(S(=O)(=O)Nc3cc(Cl)ccc3C)cc2)co1`, the “activity change, positive = activation” value is inactive: -21.1%.
As for `COc1ccc(Cn2cc(S(=O)(=O)c3ccc(C)cc3)c(=O)c3cc(F)ccc32)cc1`, the figure is inactive: 0%.
Then `COc1ccc2c(c1)c(=O)c(C(=O)c1ccccc1)cn2CC(=O)Nc1ccc2c(c1)OCO2`, with inactive: -28.1%.
For the molecule `CCOc1ccc(NC(=O)c2oc3ccccc3c2NC(=O)COc2cccc(OC)c2)cc1`, the “activity change, positive = activation” value was inactive: 7.17%.
For `Cc1cccc(CN2C(=O)c3ccccc3Sc3ccc(C(=O)NCc4ccco4)cc32)c1`, the “activity change, positive = activation” value was inactive: -28%.
For `CCS(=O)(=O)c1ncc(Cl)c(C(=O)N2CCN(c3ccc(OC)cc3)CC2)n1`, the “activity change, positive = activation” value is inactive: -94.8%.
Take `O=c1c2ccccc2nc(/C=C/c2cccc3ccccc23)n1-c1ccc(F)cc1F`: the “activity change, positive = activation” value is inactive: -11.9%.
As to `NS(=O)(=O)c1ccc(CCNC(=O)C2CCN(c3ncnc4c3nc3n4CCCCC3)CC2)cc1`, the “activity change, positive = activation” value is inactive: 1.01%.
Turning to `Cc1ccc(CNC(=O)CCc2cn(C)c3ccccc23)cc1`, the “activity change, positive = activation” value is inactive: -9.79%.
As to `CCC(CC)C(=O)Nc1nnc(S(=O)(=O)N2CCCCCC2)s1`, the “activity change, positive = activation” value is inactive: -22.7%.
Then `CCC(Sc1nc2c(sc3ccccc32)c(=O)n1CCc1ccc(OC)c(OC)c1)C(=O)N(CC)CC` (stereo not drawn), with inactive: -50.4%; and `CCOc1ccc(NC(=O)CSC2=Nc3ccccc3C3=NC(CC(=O)NCc4cccs4)C(=O)N23)cc1` (stereo not drawn), with inactive: -5.6%; and `COc1cc(-c2cc(OC)c3c(C)oc(C)c3c(=O)c2)ccc1OC(=O)c1ccc(C)cc1`, with inactive: -16.7%.
Then `O=C(CSc1n[nH]c(-c2ccccc2Cl)n1)NCCCc1ccccc1`, with inactive: -4.5%.
Take `Cc1ccc(-c2cn3c(n2)sc2cc(C(=O)NCCCN4CCCCCC4)ccc23)cc1`: the “activity change, positive = activation” value was inactive: -2.57%.
As for `CCCN(CCC)C(=O)c1cc2c(=O)n3cccc(C)c3nc2s1`, the figure is inactive: -5%; as for `CC1=C(c2ccc(C)c(C)c2)S(=O)(=O)N=C1N1CCC(C(=O)NC(C)c2ccccc2)CC1` (stereo not drawn), inactive: -24.5%; as for `CCc1ccc2oc(C(=O)N(Cc3ccc(N(C)C)cc3)Cc3ccco3)c(C)c2c1`, inactive: -22.6%.
Then `CC(CCc1ccccc1)NC(=O)Cn1c(=O)nc(-c2ccccc2)c2cc(Cl)ccc21` (stereo not drawn), with inactive: 17.1%; and `O=C1c2ccccc2-c2onc3c(N4CCN(C5CCCCC5)CC4)cc(NCCO)c1c23`, with inactive: -14.1%; and `O=C(O)c1ccccc1OP(=O)(O)O`, with inactive: -7.18%.
Then `CC(=O)c1cccc(NC(=O)C2CCN(c3ncnc4c3nc3n4CCCCC3)CC2)c1`, with inactive: -18.9%.
Regarding `Clc1ccc(CN2CCN(c3ncnc4sc5c(c34)CCCC5)CC2)cc1Cl`, the “activity change, positive = activation” value is inactive: -20.9%.
As for `c1cc(N[C@@H]2CCNC2)nc(-c2cnc3ccc(-c4cn[nH]c4)cn23)c1`, the figure is inactive: -33.1%; as for `COc1ccc(CNC(=O)Cc2c(C(=O)O)c(C)cn2C)cc1`, inactive: -8.13%.
Regarding `Cc1ncc([N+](=O)[O-])n1CC(C)O` (stereo not drawn), the activity change, positive = activation result is “inactive”.
Then `O=C(NCc1ccc(F)cc1Cl)c1cc(=O)[nH]c2ccc(S(=O)(=O)N3CCCCC3)cc12`, with inactive: -16.3%; and `COc1ccc(-c2nc3scc(CCNS(=O)(=O)c4ccc5c(c4)OCCO5)n3n2)cc1OC`, with inactive: 0.0334%.
As for `Cc1c(-c2ccccc2)c(=O)oc2ccc(OC(=O)N3CCOCC3)cc12`, the figure is inactive: -9.65%; as for `CCOc1ccc(C(=O)Nc2c(C(=O)Nc3ccccc3OC)oc3ccccc23)cc1OCC`, inactive: 16%.
As for `Cc1cc(C)cc(OCCSc2nc3ccc(NC(=O)c4cccs4)cc3s2)c1`, the “activity change, positive = activation” value was inactive: -30.9%.
With `O=C(Cn1cc(C(=O)C2CCCCC2)c2ccccc21)Nc1ccccc1Cl`, the “activity change, positive = activation” value is inactive: -33.7%.
Then `C/C=C(/C(=C/C)c1ccc(O)cc1)c1ccc(O)cc1`, with inactive: -28.7%; and `O=C(Cn1c(=O)n(Cc2nc(-c3ccccc3)no2)c(=O)c2cc3c(cc21)OCO3)Nc1ccccc1`, with inactive: -9.78%; and `CCOc1ccc(-n2c(SCC(=O)Nc3cc(C)ccc3C)nc3c([nH]c4ccccc43)c2=O)cc1`, with inactive: -15.6%.
Take `CCC(C)n1c(=O)c2sccc2n2c(CCCC(=O)N3CCN(c4ccccc4)CC3)nnc12` (stereo not drawn): the “activity change, positive = activation” value is inactive: -4.47%.
As for `COc1cccc(Cc2nc3ccccc3nc2SCC(=O)Nc2cccc(C)c2)c1`, the figure is inactive: -3.33%; as for `Cc1ccc(Cn2cc(S(=O)(=O)c3cccc(C)c3)c(=O)c3cc(F)c(N4CCOCC4)cc32)cc1`, inactive: -2.62%.
As to `O=C(Cc1ccccc1)Nc1sc2c(c1C(=O)Nc1ccccc1Cl)CCCCC2`, the “activity change, positive = activation” value is inactive: -16.3%.

The values are drawn from PubChem BioAssay AID1508624 (National Center for Advancing Translational Sciences (NCATS), 2021).
